Where “and” joins values, the source holds several entries; their conditions need not be identical. Identical values can stand only once.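 Protocol summary: plate cells (96-well), add compound at 5 concentrations, incubate 48 h, interpolate endpoints linearly. The concentration for 50% growth inhibition is given as GI50. The concentration for full growth arrest is given as TGI.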
What follows are compounds tested on NCI-H322M lung (assay: DTP human tumour cell line panel, 48 h).

SMILES | TGI | GI50 [µM]
CC(C)(C)OC(=O)N1C(C2=COc3ccccc3O2)=COc2ccccc21 | > 100 µM | 
C/C(=N/O)C1CC=C(S(=O)(=O)c2ccccc2)C1 (stereo not drawn) | > 100 µM | 
CCSC1(SCC)CCN(C=NC(C)(C)C)C1 | > 100 µM | 
CCCS(=O)(=O)O | > 100 µM | 
NC(=O)c1ccccc1NC(=O)C(=O)C(C(=O)c1ccc2ccccc2c1)C1OC(=O)c2ccccc21 (stereo not drawn) | 41.3 µM | 
O=C1CCc2c3c(c4c([nH]c5ccccc54)c2CC1)C(=O)NC3=O | 59.5 µM | 
COc1cc2c(cc1OC)C(CCc1ccc(Cl)cc1)N(C)CC2 (stereo not drawn) | > 100 µM | 37.1
O=C(CCCn1c2c(sc3ncccc32)c(=O)n2nnc(-c3ccccc3)c12)NCCc1cnc[nH]1 | 36.3 µM | 14.6
N/C(=N\O)c1ncc(-c2ccc(C(F)(F)F)cc2)c(NC2CCCCCC2)n1 | 12.4 µM | 3.21
Cc1c2c(c(C)c3c[n+](C)ccc13)Oc1ccccc1O2 | > 69.6 µM | 
COc1ccc2c(c1)C(=O)c1c-2n(CCCN=[N+]=[N-])c(=O)c2ccccc12 | > 100 µM | > 100
C=CCN1C(=O)/C(=c2\sc3n(c2=O)C2C(NN=3)N(CC)C(=O)N2CC)c2ccccc21 (stereo not drawn) | > 100 µM | 2.03
O=c1[nH]c(=S)[nH]c2c1sc(=S)n2-c1ccccc1 | > 100 µM | 
CC1=C(N2CC2)C(=O)C(CO)=C(N2CC2)C1=O | 0.735 µM and 0.857 µM | 0.159
COc1cc2c(cc1C)NC(=O)/C2=C/c1c(Cl)[nH]c2cc(C)c(OC)cc12 | 24.1 µM | 
COc1c(OC(C)=O)cc2c(OC(C)=O)c1CC(C)CC(OC)C(O)C(C)/C=C(\C)C(OC(N)=O)C(OC)/C=C\C=C(/C)C(=O)N2 (stereo not drawn) | > 100 µM | 
Cc1csc2c(P(=O)(OC(C)C)OC(C)C)c(-c3ccccc3)cn12 | 24.8 µM | 
N#CC12COC3(CCCCC3C1(C#N)C#N)OC2=N (stereo not drawn) | 76.5 µM | 
CCCCc1ccc(Nc2nc3c(ncn3C3OC(COC(C)=O)C(OC(C)=O)C3OC(C)=O)c(=O)[nH]2)cc1 (stereo not drawn) | 40 µM | 
COc1ccc(/C=C/c2cc(OC)c(O[Si](C)(C)C(C)(C)C)c(OC)c2)cc1 | > 100 µM | 
Clc1ccccc1C(n1cc(Br)cn1)n1cc(Br)cn1 | 19 µM | 
Cc1c2ccccc2c(C)c2c3c(ccc12)C(=O)C=CC3=O | > 100 µM | 
C=C1CC[C@@H]2C(C)(C)[C@@H](O)CC[C@@]2(C)[C@@H]1COc1ccc2ccc(=O)oc2c1 | 38.9 µM | 
c1cncc(CNc2ccccc2-c2nnc(Nc3ccc4c(c3)OCO4)o2)c1 | > 100 µM | 4.37

SMILES | TGI | GI50 [µM]
CCCCC1Cc2cc(O)ccc2-c2n1c1cc(O)ccc1[n+]2C (stereo not drawn) (tested in a mixture with another compound) | > 100 µM | 
CC1=CC(c2ccccc2)OP1(=O)c1ccccc1 (stereo not drawn) | > 100 µM | 
Cc1cccc(CN(C)c2ccc(CO)c(Cl)c2)c1 | 62.3 µM | 10.5
O=[N+]([O-])c1cccc(C2SCc3nc4ccccc4n32)c1 (stereo not drawn) | > 100 µM | 
CC(=O)CC(=O)CCCC(=O)Nc1ccc(Cl)cc1C | > 100 µM | 
CSC1=Nc2c(c(C)c(-c3ccccc3)n2COC(CO)CO)C2=NC(=O)C(C)N12 (stereo not drawn) | > 100 µM | > 100
O=C1NC(=NCc2cccs2)SC1Cc1ccc2ncccc2c1 (stereo not drawn) | > 25 µM | > 25
O=C(c1cc2ccccc2[nH]1)C(O)(c1cc2ccccc2[nH]1)c1cc2ccccc2[nH]1 | > 246 µM | 
CCCCCCCCCc1cc(O)c(O)cc1CCCCCCCCC | > 10 µM | 
CSCCC(NC(=O)C(Cc1ccccc1)NC(=O)CNC(=O)CNC(=O)C(N)Cc1ccc(O)cc1)C(=O)O (stereo not drawn) | > 100 µM | 
CCCOc1ccc(/C(Cl)=C(\C=O)c2ccc(OC)c(OC)c2)cc1OCCC | > 100 µM | 
COc1cc(Cn2c3c(c4c(CN(C)C)c(O)ccc42)C(=O)c2ccccc2C3=O)cc(OC)c1 | > 100 µM | 
C1CNCCN2CCCNCCN(C1)CC2 | > 100 µM | 
CCN(CC)CCN1C(=O)c2cccc3c(-c4ccc5c(c4)ncn5C4CCCCC4)ccc(c23)C1=O | 5.43 µM | 1.94
Clc1ccc(-c2nc3c(-c4ccc(Cl)cc4)nc(-c4ccccc4)cn3c2-c2ccc(Cl)cc2)cc1 | > 50 µM | > 50
C/C(=N\NC(=O)CC(=O)Nc1ccc(C)cc1)c1cc2ccccc2oc1=O | > 100 µM | 
CCOC(=O)c1ccc(N=C2SC(=S)N(c3ccc(F)cc3)C2=Nc2ccc(C(=O)OCC)cc2)cc1 | > 100 µM | 
COc1cccc(Nc2nc(NNC(=O)Cc3ccccc3)nc(NNC(=O)c3ccncc3)n2)c1 | > 100 µM | > 100
CC(C)=CC/C=C(/C)[C@H]1CC[C@]2(C)[C@@H]1CC[C@@H]1[C@@]3(C)CCC(=O)NC(C)(C)[C@@H]3CC[C@]12C | > 100 µM | 35.4
ON=C1CCCCC(=NO)CCCC1 | > 100 µM | 
CCc1cccc(C(C)CC)c1N=C(NC(=O)c1ccccc1C(=O)NC(=Nc1c(CC)cccc1C(C)CC)SC)SC (stereo not drawn) | > 100 µM | 
CCOC(=O)CC(=O)ON(C)C(=O)Cc1ccccc1 | > 100 µM | 
O=C1C2=C(C(=O)c3c(O)ccc(O)c31)N(c1ccc(N3CCOCC3)nc1)Cc1ccccc1O2 | 5.14 µM | 2.02
COc1cc(N=C(N)N=C(N)N)c2ncccc2c1 | > 100 µM | 

Reference: PubChem BioAssay (NCI)
